# In all, about 310,000 compounds went through this assay and about 2,200 (0.71%) showed an effect of 50% or more. The effect is printed as a negative number. The list shows a part of the results.
# Biological target: human ether-à-go-go-related gene (hERG) potassium channel (human, UniProt Q12809)
# Assay: primary screen, population patch clamp on CHO cells stably expressing hERG
# Sequence of human ether-à-go-go-related gene (hERG) potassium channel (Q12809 whole entry, looked up): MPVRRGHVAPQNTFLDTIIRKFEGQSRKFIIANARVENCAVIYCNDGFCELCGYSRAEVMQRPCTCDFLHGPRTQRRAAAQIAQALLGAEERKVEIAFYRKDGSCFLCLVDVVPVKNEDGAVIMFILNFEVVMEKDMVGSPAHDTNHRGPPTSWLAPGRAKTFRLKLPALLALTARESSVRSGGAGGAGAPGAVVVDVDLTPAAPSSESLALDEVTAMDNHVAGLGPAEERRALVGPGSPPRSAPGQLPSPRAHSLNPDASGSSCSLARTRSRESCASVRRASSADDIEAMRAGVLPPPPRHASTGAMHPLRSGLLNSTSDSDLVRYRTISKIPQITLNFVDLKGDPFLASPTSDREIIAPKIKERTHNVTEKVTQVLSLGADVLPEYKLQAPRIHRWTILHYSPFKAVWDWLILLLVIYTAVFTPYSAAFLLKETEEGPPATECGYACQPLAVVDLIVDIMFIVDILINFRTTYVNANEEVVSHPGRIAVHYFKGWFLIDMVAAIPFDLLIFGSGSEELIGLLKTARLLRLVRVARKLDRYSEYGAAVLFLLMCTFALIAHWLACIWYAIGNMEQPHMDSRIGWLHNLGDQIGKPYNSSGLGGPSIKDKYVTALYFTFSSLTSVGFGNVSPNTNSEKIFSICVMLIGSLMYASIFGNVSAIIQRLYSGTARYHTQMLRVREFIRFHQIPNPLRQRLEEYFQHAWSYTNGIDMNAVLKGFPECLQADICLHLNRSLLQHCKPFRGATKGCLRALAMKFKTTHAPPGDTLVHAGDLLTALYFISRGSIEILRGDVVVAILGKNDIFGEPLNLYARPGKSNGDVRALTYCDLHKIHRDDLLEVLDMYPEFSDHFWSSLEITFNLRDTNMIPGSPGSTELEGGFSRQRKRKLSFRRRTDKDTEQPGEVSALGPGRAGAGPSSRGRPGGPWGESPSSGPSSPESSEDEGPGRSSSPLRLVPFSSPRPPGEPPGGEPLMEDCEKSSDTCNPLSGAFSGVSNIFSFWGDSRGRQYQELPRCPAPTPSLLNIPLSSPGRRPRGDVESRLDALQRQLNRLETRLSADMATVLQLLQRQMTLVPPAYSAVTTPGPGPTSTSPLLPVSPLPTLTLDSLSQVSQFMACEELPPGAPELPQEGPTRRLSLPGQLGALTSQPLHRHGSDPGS
row,Structure (SMILES),"hERG current change (%, negative = inhibition) at 1uM [%]"
1,CCC(CC)N1CCN(CC2CC=CCC2)CC1.O=C(O)C(=O)O (stereo not drawn),10.9
2,CC(=O)c1c(C)[nH]c(C(=O)Nc2ccc(C)cc2Br)c1C,19.3
3,COC(=O)[C@]1(C)CCC[C@@]2(C)C3CC[C@@]4(C)C[C@]3(CC[C@H]12)C[C@H]4O (stereo partly drawn),-1.87
4,CCCN1CCN(C(=S)Nc2ccc(SC(F)F)cc2)CC1,-11.5
5,O=C(N/N=C/c1ccc(Br)o1)/C(=C/c1ccc([N+](=O)[O-])cc1)NC(=O)c1ccccc1,-31.9
6,Cc1cnccc1CN(C)C(=O)C1CCC(=O)N(Cc2ccccc2F)C1 (stereo not drawn),4.03
7,O=C(OCC(=O)c1ccc(Cl)s1)c1ccccn1,12.6
8,Cc1cc(C)c(NC(=S)N(CCN(C)C)C(C)c2cccnc2)c(C)c1 (stereo not drawn),4.38
9,Cl.O=C(COc1ccccc1F)NC1CCN(Cc2ccccc2)CC1,-3.6
10,Cc1ccc(NC(=O)CCC(=O)NNC(=O)c2ccccc2)c(C)c1,14
11,NC(=O)c1ccc2c(c1)OCCO2,12.5
12,CC(C)Oc1ccccc1C1CC(=O)Nc2cc3c(cc21)OCCO3 (stereo not drawn),-7.12
13,O=C(Nc1ccc(NC(=O)c2ccccc2Cl)nc1)c1ccco1,7.62
14,CCCn1c(-c2ccc(F)cc2)n[nH]c1=S,5.3
15,NC(=O)COC(=O)c1ccc(Oc2ccccc2)cc1,4.12
16,O=C(CCC(=O)N1CCN(c2ccc(O)cc2)CC1)c1ccc(Br)cc1,-21.9
17,Cn1nc(C(=O)Nc2ccc(S(=O)(=O)Nc3ncccn3)cc2)ccc1=O,13.5
18,C=CCN1C(=O)C(CC(=O)Nc2ccccc2)S/C1=N/c1nccs1 (stereo not drawn),4.41
19,Cc1ccc2c(Cl)cc(Cl)c(OCC(=O)NC3CCS(=O)(=O)C3)c2n1 (stereo not drawn),-6.16
20,Clc1ccc(N2CCNCC2)nn1,13.7
21,CCOC(=O)CSc1nnc(CNc2cccc(Cl)c2)n1C,10.7
22,Cc1nnsc1NC(=O)OCc1ccc(C(C)(C)C)cc1,2.12
23,O=C(NC(=S)N1CCCc2ccccc21)c1ccc([N+](=O)[O-])cc1,4.51

row,Structure (SMILES),"hERG current change (%, negative = inhibition) at 1uM [%]"
1,O=C(CSc1nnc(COc2ccccc2F)n1-c1ccccc1)NCc1ccco1,7.55
2,COc1ccc(NC(=O)CSCC(=O)NCCc2ccccn2)cc1,13.4
3,CC(C)Oc1ccc(/C=C(/NC(=O)c2ccccc2)C(=O)NCCC(=O)O)cc1,11.5
4,COc1ccc(N2CCN(C(=O)CSc3nc4c(c(=O)n(C)c(=O)n4C)n3C(C)C)CC2)cc1,-14.2
5,Cc1ccccc1NC(=O)C1CCCN(c2ncnc3onc(-c4ccc(F)cc4)c23)C1 (stereo not drawn),16.3
6,COc1ccc2c(=O)c(-c3ccc(OC)c(OC)c3)coc2c1,-6.6
7,CCOC(=O)c1nc(Nc2cc(C)cc(C)c2)c2ccccc2n1,11.2
8,O=C(Cn1c(NCCO)nc2ccccc21)NCCc1ccccc1,15.2
9,O=C1c2ccccc2C(=O)N1CCCCN(C(=O)c1ccco1)c1ccc(Cl)cc1,-13.3
10,Br.Nc1ncc([N+](=O)[O-])cc1Br,14.3
11,FC(F)(F)c1cccc(-c2ccc(-c3csnn3)o2)c1,9.16
12,COc1ccc(CSc2nnc(C)s2)cc1F,7.9
13,Cc1ccc2nc(NC(=O)CSCc3ccccc3)sc2c1,4.96
14,CCNC(=O)NC(=O)CSc1cccc(C(F)(F)F)c1,-0.951
15,CC1S/C(=N/N=C/c2ccco2)N(Cc2ccc(F)cc2)C1=O (stereo not drawn),14.7
16,O=C(Nc1nnc(S(=O)(=O)N2CCN(c3ccc(F)cc3)CC2)s1)c1ccccc1,11.5
17,N#Cc1ccccc1NC(=O)CN1CC=C(c2ccccc2)CC1,7.73
18,CCC(C)c1ccc(NC(=O)c2cccs2)cc1 (stereo not drawn),1.88
19,O=c1[nH]c(=O)n(CCc2ccc(F)cc2)c(O)c1C=NCCCN1CCOCC1,1.65
20,CCOC(=O)C1=C(C)NC(SCC(=O)Nc2nc(C)cs2)=C(C#N)C1c1cccs1 (stereo not drawn),9.33
21,CC1CCCN(CCOc2ccc3ccccc3c2Br)C1.O=C(O)C(=O)O (stereo not drawn),-6.04
22,COc1ccc(CCN2C(=O)CC(NNc3ccc([N+](=O)[O-])cc3)C2=O)cc1OC (stereo not drawn),-12.9
